Source: PubChem BioAssay AID624417 (National Center for Advancing Translational Sciences (NCATS), 2012)
Hit rate of the full screen: of about 410,000 compounds, about 6,400 (1.6%) were called active. This list was built around the results that the source calls inconclusive (neither active nor inactive); the mix of calls is not that of the screen. Calls follow the shape of the dose curve; as a rule, active = well fitted inhibition curve with a large enough effect; inconclusive = small, poorly fitted or top-dose-only effect; inactive = no such curve, though single readings can be large or run the other way. No potency is given beside an inconclusive call; the fits are too rough.

Biological target: Glucagon-like peptide 1 receptor (Homo sapiens) (UniProt P43220)
Assay: qHTS of GLP-1 Receptor Inverse Agonists (Inhibition Mode); also: nearly all actives have a fitted effect of over 55% in size
Conditions: HEK293 GLP-1R CRE-luciferase, luminescence, 24 h, GLP-1R form is constitutively active; activity change, negative = inhibition: at 38.3 µM (top of the series) unless noted
Method in brief: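 Stable HEK293 clone (constitutively active GLP-1R + cAMP-response luciferase); 200 cells/uL plated, 12 h pre-culture, compound 24 hr, 37 deg C/5% CO2; detection reagent 12 min RT; luminescence.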
% is scaled to controls: 0 for no effect and ±100 for the full control effect; potency is read from the fitted curve at half-maximal effect; tags tell the direction and shape of the fitted curve.

UniProt P43220, sequence (P43220 whole entry, looked up): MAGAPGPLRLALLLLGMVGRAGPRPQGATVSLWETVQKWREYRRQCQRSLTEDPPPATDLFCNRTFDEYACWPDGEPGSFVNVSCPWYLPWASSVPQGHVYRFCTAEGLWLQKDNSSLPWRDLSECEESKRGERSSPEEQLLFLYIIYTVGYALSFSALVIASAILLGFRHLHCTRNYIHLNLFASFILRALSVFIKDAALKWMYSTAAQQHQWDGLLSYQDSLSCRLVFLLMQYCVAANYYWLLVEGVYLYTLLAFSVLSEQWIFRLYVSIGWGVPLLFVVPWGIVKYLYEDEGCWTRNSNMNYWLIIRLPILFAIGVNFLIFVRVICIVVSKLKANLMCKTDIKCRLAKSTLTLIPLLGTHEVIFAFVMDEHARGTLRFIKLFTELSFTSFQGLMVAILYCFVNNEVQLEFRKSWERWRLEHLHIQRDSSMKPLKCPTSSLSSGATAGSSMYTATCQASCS

SMILES	Potency	activity change, negative = inhibition
O=C(Nc1cccc([N+](=O)[O-])c1)NN1CCCCCC1	inconclusive [inhibitor, single point]	
O=C(NNC1=C(C(=O)C(F)(F)F)CCC1)c1ccc(Br)cc1	inactive	
c1ccc(CSc2nnc(NC3=NCCCCC3)s2)cc1	inconclusive [inhibitor, single point]	
Cc1ccc(CNC(=O)C2(C)CCN2C(=O)Cc2ccc(C(C)(C)C)cc2)cc1 (stereo unspecified)	inconclusive [inhibitor, single point]	
Nc1nonc1-n1nnc(C(=O)N/N=C/c2ccccc2Cl)c1-c1ccccc1	inconclusive [inhibitor, single point]	
CCCCCCCCN1N=N[C@H]2[C@H]1[C@@H]1C[C@H]2N(C(=O)OC(C)(C)C)O1	inconclusive [inhibitor, partial curve, poor fit]	
O=C(CN1CCCc2ccccc21)N/N=C/c1ccc(O)cc1O	inconclusive [inhibitor, single point]	
CC1CCC(NC(=O)CN2CCCN(Cc3ccc(F)cc3Cl)C2=O)CC1 (stereo unspecified)	inconclusive [inhibitor, partial curve, poor fit]	
CC1CCN(S(=O)(=O)c2ccc(NC(=O)C3CCN(C(=O)c4ccco4)CC3)cc2)CC1	active: 2.82 µM	
CC(C)(C)NC(=O)C(c1ccc(F)cc1)N(C(=O)CCC(=O)Nc1ccccn1)C1CCCC1 (stereo unspecified)	inconclusive [inhibitor, single point]	
CC1(C(=O)Nc2ccc3c(c2)OCO3)CCN1Cc1csc2ccccc12 (stereo unspecified)	inconclusive [inhibitor, single point]	
CC(=O)c1cnn(-c2ccc(Cl)c(Cl)c2Cl)c1C	inconclusive [inhibitor, partial curve, poor fit]	
O=C(COC(=O)/C=C/c1ccc(OC(F)F)cc1)Nc1cccc(S(=O)(=O)N2CCOCC2)c1	inconclusive [inhibitor, partial curve, poor fit]	
CC(C)Cc1ccc(CN2CCC(n3nccc3NC(=O)C3CCCC3)CC2)cc1	inconclusive [inhibitor, partial curve, poor fit]	
Cc1cc(/C=C(/C#N)c2nc3ccccc3[nH]2)c(C)n1-c1ccccc1C(=O)O	inconclusive [inhibitor, full curve]	
Oc1ccc(Br)cc1-c1ccnn1-c1ccccc1	inconclusive [inhibitor, partial curve, poor fit]	
Cc1ccc(S(=O)(=O)N2c3ccccc3OCC2C(C)(C)C)cc1 (stereo unspecified)	inconclusive [inhibitor, partial curve, poor fit]	
COCC(=O)N1C[C@H]2CON(C)[C@H]2C[C@H]1c1cccc(-c2ccccc2)c1	inactive	
Cc1cccc(C2CC3(CC(C)(C)NC(=S)N3)Oc3cc(O)ccc32)c1 (stereo unspecified)	inconclusive [inhibitor, single point]	
COc1cccc(/C=C/C(=O)c2ccc(NS(=O)(=O)c3ccc(C)cc3)cc2)c1	inconclusive [inhibitor, single point]	
COc1ccc2c(c1)c(C(C)=O)c(C)n2CCc1ccccc1	inconclusive [inhibitor, partial curve, poor fit]	

SMILES	Potency	activity change, negative = inhibition
COc1cccc(C(=O)Nc2ccc(NC(=O)C3CCCCC3)nc2)c1	inconclusive [inhibitor, partial curve, poor fit]	
O=[N+]([O-])c1cccc2nc3ccccc3c(NCCCn3ccnc3[N+](=O)[O-])c12	inconclusive [inhibitor, full curve, poor fit]	
Cc1[nH]c2ccccc2c1CCNS(=O)(=O)c1ccc(S(N)(=O)=O)cc1	inactive	
O=C(Cc1ccccc1F)Nc1ccccc1-c1ccccc1	inconclusive [inhibitor, partial curve]	
COc1ccc([N+](=O)[O-])cc1NC(=O)C(C)c1ccccc1 (stereo unspecified)	inactive	
O=C(NC[C@H]1CCCO1)c1cccc2c1C(=O)c1ccc(-c3ccc(F)cc3OCc3ccccc3)cc1S2(=O)=O	inconclusive [inhibitor, partial curve, poor fit]	
CCOc1cccc(NC(=O)C2CC(=O)N(C)C(=Nc3cccc(OC)c3)S2)c1 (stereo unspecified)	inconclusive [inhibitor, single point]	
COc1ccc(C)cc1Nc1n[n+](-c2ccccc2)c(-c2c(OC)ccc3ccccc23)s1	inconclusive [inhibitor, single point]	
O=C1C(Cl)=C(N2CCN(Cc3ccccc3)CC2)C(=O)N1Cc1ccccc1	inconclusive [inhibitor, partial curve, poor fit]	
O=C(N/N=C/c1c[nH]c2ccccc12)c1ccc(Cl)cc1		inconclusive: -60.6% [inhibitor]
COC(=O)/C=C1\S/C(=N/N=C/c2ccc(Cl)cc2)NC1=O	inactive	
CCN(CC)CCn1c2ccccc2c2nc(C)sc21	inconclusive [inhibitor, single point]	
CCOc1ccccc1CN1[C@@H](c2ccc(OC)cc2)CC(C(=O)OC)(C(=O)OC)[C@H]1c1ccccc1	inconclusive [inhibitor, partial curve, poor fit]	
CCOCCCNC(=O)c1ccc2c(c1)NC(=O)C(CS(=O)(=O)Cc1ccc(F)cc1Cl)N2 (stereo unspecified)	inactive	
CCCN1/C(=C2/SC(=S)N(CC)C2=O)C=Cc2ccccc21	inconclusive [inhibitor, full curve, poor fit]	
CN1/C(=C\C(=O)c2cccc(S(=O)(=O)N3CCCCC3)c2)C(C)(C)c2ccccc21	inconclusive [inhibitor, partial curve, poor fit]	
N=c1oc2cc(O)ccc2cc1C(=O)Nc1ccc(Cl)cc1	inactive	
O=C(c1ccccc1)c1ccc(OCCOCCN2CCN(Cc3ccccc3)CC2)cc1	inconclusive [inhibitor, full curve, poor fit]	
COc1ccc(N(CC(=O)Nc2cccc(C)c2C)S(=O)(=O)c2c(C)n[nH]c2C)cc1	inconclusive [inhibitor, single point]	
Cc1ccc(S(=O)(=O)N2[C@@H](c3ccc(Cl)cc3)C(C(=O)O)=CC[C@H]2c2ccc(C(C)C)cc2)cc1	active: 6.31 µM	
Cc1ccc(C2=NN(CC(=O)NCCCN(CC(C)C)CC(C)C)C(=O)CC2)cc1	inactive	

SMILES	Potency	activity change, negative = inhibition
O=S1(=O)CC(N2CCC(Cc3ccccc3)CC2)CN1Cc1ccc(F)cc1 (stereo unspecified)	inconclusive [inhibitor, partial curve, poor fit]	
CSc1ncccc1C(=O)Nc1cccc(S(=O)(=O)N2CCCCCC2)c1	inconclusive [inhibitor, single point]	
CCc1ccc(NC(=O)C2CCCN(S(=O)(=O)c3ccc4c(c3)CCCN4C(C)=O)C2)cc1 (stereo unspecified)	inconclusive [inhibitor, single point]	
CCCN(CC1CC1)C(=O)COC(=O)c1[nH]c(C)c(C(=O)OCC)c1C	inconclusive [inhibitor, partial curve]	
O=C1C(Nc2ccccc2)=C(NS(=O)(=O)c2ccccc2)C(=O)c2ccccc21	inactive	
c1ccc(CN2CCN(CCOCCOc3ccc4c(c3)CCC4)CC2)cc1		inactive: -29.6% [at 7.66 µM]
COc1ccc(C(=O)N2CC(=O)Nc3ccc(C)cc3C2c2ccccc2)c(OC)c1 (stereo unspecified)	inactive	
COc1ccc2nc3ccccc3nc2c1NC(=O)c1ccc(Cl)cc1Cl	inconclusive [inhibitor, single point]	
Oc1c(Cl)cc(Cl)cc1/C=C/c1ccc2cccc(O)c2n1	inconclusive [inhibitor, partial curve, poor fit]	
Cn1nc(C(F)(F)F)c2cc(NC(=O)OCc3ccc(C(C)(C)C)cc3)sc21	inconclusive [inhibitor, partial curve, poor fit]	
CCOc1cc(-c2nnc(SCC(=O)NCc3ccccc3)nc2-c2ccc(OC)c(OCC)c2)ccc1OC	inconclusive [inhibitor, full curve, poor fit]	
CCOC(=O)c1cc(CC)sc1NC(=O)Cc1ccsc1	inconclusive [inhibitor, single point]	
COc1ccccc1N1CCN(S(=O)(=O)c2ccc3[nH]c4c(c3c2)CCCC4)CC1	inconclusive [inhibitor, single point]	
COc1ccc(NC(=O)C2(C)Cc3c(-c4ccc(N(C)C)cc4)ccnc3O2)cn1 (stereo unspecified)	inconclusive [inhibitor, partial curve, poor fit]	
Cc1ccc(-c2csc3ncnc(Oc4ccc5c(C)cc(=O)oc5c4)c23)cc1	inconclusive [inhibitor, single point]	
O=C1C2CC=CCC2C(=O)N1c1ccc(NCCc2ccc(O)cc2)c([N+](=O)[O-])c1 (stereo unspecified)	inconclusive [inhibitor, partial curve, poor fit]	
Cn1nc(C(C)(C)C)cc1C(=O)N1CCCCC1c1cc(C(=O)Nc2cccc(C#N)c2)no1 (stereo unspecified)	active: 10 µM	
COc1cccc(/C=N/Nc2nn3cnnc3c3ccccc23)c1O	inconclusive [inhibitor, partial curve, poor fit]	
Cc1cccc2[nH]c(-c3ccc(NC(=O)c4ccco4)cc3)nc12	inconclusive [inhibitor, partial curve, poor fit]	
